Assay results as given in PubChem BioAssay AID1460 (National Center for Advancing Translational Sciences (NCATS), 2008).
The campaign covered roughly 270,000 compounds. About 5,800 (2.1%) were called active. The inconclusive results got no clear call from the source; some entries with a clear call stand among them for comparison. Calls follow the shape of the dose curve; as a rule, active = well fitted inhibition curve with a large enough effect; inconclusive = small, poorly fitted or top-dose-only effect; inactive = flat fitted curve, though single readings scatter. Potencies beside an inconclusive call are fits to weak or partial responses and may not hold up.
% is scaled to controls: 0 for no effect and ±100 for the full control effect; potency is read from the fitted curve at half-maximal effect; tags tell the direction and shape of the fitted curve.
Also: nearly all actives have a fitted effect of over 55% in size.

The compounds below were run against Microtubule-associated protein tau (Homo sapiens) (UniProt P10636) (assay: qHTS for Inhibitors of Tau Fibril Formation, Thioflavin T Binding). Settings: recombinant tau K18 P301L (four-repeat tau fragment), heparin-induced fibrillization, ThT fluorescence; series mostly up to 57.4 µM; activity, negative = inhibition: at the top concentration.
Sequence of UniProt P10636 (P10636 whole entry, looked up, the tested form may be a part): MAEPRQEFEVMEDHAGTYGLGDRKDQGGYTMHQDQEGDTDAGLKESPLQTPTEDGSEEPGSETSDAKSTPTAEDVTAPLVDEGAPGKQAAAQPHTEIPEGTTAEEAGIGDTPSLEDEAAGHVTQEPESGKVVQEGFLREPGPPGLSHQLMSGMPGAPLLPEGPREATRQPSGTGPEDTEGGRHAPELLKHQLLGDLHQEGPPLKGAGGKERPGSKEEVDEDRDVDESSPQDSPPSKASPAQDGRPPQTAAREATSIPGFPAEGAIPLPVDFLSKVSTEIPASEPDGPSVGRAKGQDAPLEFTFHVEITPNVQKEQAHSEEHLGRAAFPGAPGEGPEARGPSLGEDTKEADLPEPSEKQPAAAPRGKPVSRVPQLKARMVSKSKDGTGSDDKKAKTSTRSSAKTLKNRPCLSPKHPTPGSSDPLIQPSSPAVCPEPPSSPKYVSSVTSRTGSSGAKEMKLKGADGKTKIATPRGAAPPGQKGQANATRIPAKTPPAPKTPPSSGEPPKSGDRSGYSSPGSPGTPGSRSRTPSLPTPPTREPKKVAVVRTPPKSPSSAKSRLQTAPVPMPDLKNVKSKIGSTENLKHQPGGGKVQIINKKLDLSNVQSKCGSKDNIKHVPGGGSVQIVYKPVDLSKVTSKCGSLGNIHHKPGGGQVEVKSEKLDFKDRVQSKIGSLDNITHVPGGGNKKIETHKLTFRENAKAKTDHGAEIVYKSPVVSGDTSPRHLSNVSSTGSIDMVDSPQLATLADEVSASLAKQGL
How it was run: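 Tau K18 P301L fragment (15 uM unlabeled plus 0.24 uM Alexa 594-labeled) in 100 mM sodium acetate pH 7 with compound, fibrillization induced by 20 uM heparin for 6 hr at 37 C. Thioflavin T (30 uM) added, fluorescence read after 1 hr (ex 450, em 510 nm).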
CCOC(=O)c1sc(Nc2cccc(Cl)c2)nc1C was tested, and the Potency was inconclusive: 3.98 µM [inhibitor, partial curve, poor fit].
With CCc1nnc(SCc2nc(-c3cccc(C)c3)oc2C)c2cc3sc(C)cc3n12 the Potency was inconclusive: 10 µM [inhibitor, partial curve].
N#Cc1cc(-c2ccccc2)nc(Oc2ccc(Cl)cc2)n1 was tested, and the Potency was inconclusive: 20 µM [inhibitor, single point].
Cc1cccc(NC(c2ccc(C)s2)c2ccc3ccc(C)nc3c2O)n1 (stereo not given) was tested, and the Potency was inconclusive: 25.1 µM [inhibitor, partial curve].
O=C(CCNc1cccc(F)c1)c1cc2ccccc2o1 was tested, and the “activity, negative = inhibition” value was inactive: -15.4%.
For CCC1C(=O)N=C(SCC(=O)NC2CCCCC2)NC1=O (stereo not given), the Potency was inconclusive: 39.8 µM [inhibitor, single point].
With CCN1CCN(c2cc(C)c3cc(NC(=O)/C=C/c4ccc(OCCC(C)C)cc4)ccc3n2)CC1 the Potency was active: 7.08 µM.
Clc1ccc2nc(N3CCN(c4ccccc4)CC3)sc2c1 was tested, and the Potency was inconclusive: 3.98 µM [inhibitor, partial curve].
In the case of Cc1cc2cc(NC(=O)c3ccco3)ccc2[nH]1, the Potency is reported as inconclusive: 12.6 µM [inhibitor, partial curve].
CC(C)Oc1ccc(CNC(=O)c2ccc3c(c2)N(C)C(=O)C2CCCCN32)cc1 (stereo not given) was tested, and the “activity, negative = inhibition” value was inactive: -4.48%.
In the case of O=c1/c(=C/c2ccco2)sc2nc(-c3ccccc3Br)nn12, the Potency is reported as inconclusive: 22.4 µM [inhibitor, partial curve].
In the case of COC(=O)Cn1c(C(=O)N(C)C)cc2c1C[C@H]1CN(C(=O)c3ccccc3)[C@@](Cc3ccc(OC)cc3)(C(=O)OC)[C@@H]21, the “activity, negative = inhibition” value is reported as inactive: -0.829%.
For OC(CNCc1ccco1)Cn1c2ccccc2c2ccccc21 (stereo not given), the “activity, negative = inhibition” value was inactive: -6.14%.
CCOc1ccc(-n2nc3ccc(NC(=O)COc4ccccc4)cc3n2)cc1 was tested, and the Potency was inconclusive: 0.631 µM [inhibitor, full curve].
With COc1cc2c(cc1OC)CN(C(=S)Nc1ccc(OC(F)F)cc1)CC2 the Potency was inconclusive: 3.16 µM [inhibitor, full curve, poor fit].
CCc1ccc(NC(=O)Cn2c(=O)n(CCC(=O)NCCc3ccc(OC)c(OC)c3)c(=O)c3ccccc32)cc1 was tested, and the “activity, negative = inhibition” value was inactive: -3.13%.
For CCC(C)S(=O)(=O)c1oc(-c2ccc(F)cc2)nc1S(=O)(=O)c1ccc(F)cc1 (stereo not given), the Potency was inconclusive: 2.82 µM [inhibitor, single point].
C=CCC(Nc1ccccc1)c1ccc(OC)c(OC)c1 (stereo not given) was tested, and the “activity, negative = inhibition” value was inactive: -9.24%.
O=C(Nc1ccc(F)cc1F)Nc1sccc1-c1nc2ccccc2s1 was tested, and the Potency was inconclusive: 7.08 µM [inhibitor, single point].
For CCNC(=O)C1CCCN(c2nn3cc(-c4ccc(C)cc4)nc3s2)C1 (stereo not given), the Potency was inconclusive: 14.1 µM [inhibitor, partial curve].
In the case of CC(C)c1ccc(CNCCSc2nnnn2-c2ccccc2)cc1, the “activity, negative = inhibition” value is reported as inactive: -17.9%.
With Nc1ccc(OCCCc2c(N)nc(N)nc2N)cc1 the Potency was inconclusive: 28.2 µM [inhibitor, partial curve].
In the case of Cc1nc(NS(=O)(=O)c2ccc(Br)cc2)c2c3c(sc2n1)CCC3, the Potency is reported as inconclusive: 20 µM [inhibitor, single point].
For CCOc1ccc(C(=O)NCCc2csc(-c3cccnc3)n2)cc1, the Potency was inconclusive: 3.55 µM [inhibitor, full curve].
In the case of CCN(CC)S(=O)(=O)c1ccc2c(c1)N(CC(=O)NCCCN1CCN(c3cc(C)ccc3C)CC1)C(=O)CO2, the “activity, negative = inhibition” value is reported as inactive: -10.3%.
For CC(C)CC1CC(=O)OC1(C)C(=O)CSc1nc2ccccc2s1 (stereo not given), the Potency was inconclusive: 22.4 µM [inhibitor, single point].
CCn1c(CSc2nc3ccccc3s2)nnc1SCC(=O)c1ccc2c(c1)OCCO2 was tested, and the Potency was inconclusive: 28.2 µM [inhibitor, single point].
With Cc1c(NC(=O)C(=O)/C=C(\O)c2ccc(Br)cc2)c(=O)n(-c2ccccc2)n1C the Potency was inconclusive: 22.4 µM [inhibitor, single point].
With CCn1c(=N)c(C(=O)NC2CCCC2)cc2c(=O)n3cc(C)ccc3nc21 the “activity, negative = inhibition” value was inactive: -5.9%.
With COc1cc([N+](=O)[O-])cc(/C=N/NC(=O)c2cc(-c3ccccc3)nc3ccccc23)c1O the Potency was active: 15.8 µM.
In the case of CSCCC(NC(=O)COc1ccccc1)C(=O)O (stereo not given), the “activity, negative = inhibition” value is reported as inactive: 4.66%.
With COc1ccc(OC)c(NC(=O)c2nnn(CC(=O)Nc3ccc(C(C)C)cc3)c2N)c1 the Potency was inconclusive: 25.1 µM [inhibitor, single point].
In the case of COc1ccc(CCNC(=O)c2ccc3nc(CCc4ccccc4)oc3c2)cc1OC, the Potency is reported as inconclusive: 0.708 µM [inhibitor, full curve].
CCn1c(CSc2nnc(-c3cccnc3)n2-c2ccccc2C)nc2cc(C(=O)O)ccc21 was tested, and the Potency was inconclusive: 31.6 µM [inhibitor, single point].
In the case of CCS(=O)(=O)c1ccc2oc(Nc3ccc(C(C)C)cc3)nc2c1, the Potency is reported as active: 39.8 µM.
For Fc1ccc(Nc2cccc3nccnc23)cc1, the Potency was inconclusive: 11.2 µM [inhibitor, partial curve].
O=C(Oc1cccc(Nc2ncnc3ccccc23)c1)c1cccnc1 was tested, and the Potency was inconclusive: 39.8 µM [inhibitor, single point].
For Cc1c(NC(=O)c2c(N)sc3c2CCCC3)c(=O)n(-c2ccccc2)n1C, the Potency was inconclusive: 31.6 µM [inhibitor, partial curve].
For CCN1CCc2nc(NC(=O)c3ccc4c(c3)OCCO4)sc2C1, the Potency was inconclusive: 17.8 µM [inhibitor, partial curve, poor fit].
COC(=O)c1c(NC(=O)COc2ccc(C(C)C)cc2)sc2c1CCCC2 was tested, and the Potency was inconclusive: 14.1 µM [inhibitor, partial curve].
CC(NC(=O)NCCCC(=O)O)(C(F)(F)F)C(F)(F)F was tested, and the “activity, negative = inhibition” value was inactive: -0.371%.
For C/C(=N/Nc1nc(-c2ccccc2)c(CC(=O)O)s1)c1ccccc1, the Potency was active: 12.6 µM.
Cc1nn(-c2ccccc2)c(N)c1C1(O)C(=O)N(C(C)C)c2ccccc21 (stereo not given) was tested, and the “activity, negative = inhibition” value was inactive: -11.8%.
In the case of CN(Cc1ccccc1)C(=O)c1ccc(CSc2nc3cccnc3n2Cc2ccccc2)cc1, the “activity, negative = inhibition” value is reported as inactive: -10.1%.
With O=C(COc1ccccc1)Nc1nc(-c2cccs2)cs1 the Potency was inconclusive: 28.2 µM [inhibitor, single point].
